# Source: article PMC4336329 (PLoS ONE, 2015)
# In all, about 310,000 compounds went through this assay and about 2,200 (0.71%) showed an effect of 50% or more. The effect is printed as a negative number. Some of the results follow.
# Target: human ether-à-go-go-related gene (hERG) potassium channel (human, UniProt Q12809)
# Assay: primary screen, population patch clamp on CHO cells stably expressing hERG
# Chain of human ether-à-go-go-related gene (hERG) potassium channel (Q12809 whole entry, looked up): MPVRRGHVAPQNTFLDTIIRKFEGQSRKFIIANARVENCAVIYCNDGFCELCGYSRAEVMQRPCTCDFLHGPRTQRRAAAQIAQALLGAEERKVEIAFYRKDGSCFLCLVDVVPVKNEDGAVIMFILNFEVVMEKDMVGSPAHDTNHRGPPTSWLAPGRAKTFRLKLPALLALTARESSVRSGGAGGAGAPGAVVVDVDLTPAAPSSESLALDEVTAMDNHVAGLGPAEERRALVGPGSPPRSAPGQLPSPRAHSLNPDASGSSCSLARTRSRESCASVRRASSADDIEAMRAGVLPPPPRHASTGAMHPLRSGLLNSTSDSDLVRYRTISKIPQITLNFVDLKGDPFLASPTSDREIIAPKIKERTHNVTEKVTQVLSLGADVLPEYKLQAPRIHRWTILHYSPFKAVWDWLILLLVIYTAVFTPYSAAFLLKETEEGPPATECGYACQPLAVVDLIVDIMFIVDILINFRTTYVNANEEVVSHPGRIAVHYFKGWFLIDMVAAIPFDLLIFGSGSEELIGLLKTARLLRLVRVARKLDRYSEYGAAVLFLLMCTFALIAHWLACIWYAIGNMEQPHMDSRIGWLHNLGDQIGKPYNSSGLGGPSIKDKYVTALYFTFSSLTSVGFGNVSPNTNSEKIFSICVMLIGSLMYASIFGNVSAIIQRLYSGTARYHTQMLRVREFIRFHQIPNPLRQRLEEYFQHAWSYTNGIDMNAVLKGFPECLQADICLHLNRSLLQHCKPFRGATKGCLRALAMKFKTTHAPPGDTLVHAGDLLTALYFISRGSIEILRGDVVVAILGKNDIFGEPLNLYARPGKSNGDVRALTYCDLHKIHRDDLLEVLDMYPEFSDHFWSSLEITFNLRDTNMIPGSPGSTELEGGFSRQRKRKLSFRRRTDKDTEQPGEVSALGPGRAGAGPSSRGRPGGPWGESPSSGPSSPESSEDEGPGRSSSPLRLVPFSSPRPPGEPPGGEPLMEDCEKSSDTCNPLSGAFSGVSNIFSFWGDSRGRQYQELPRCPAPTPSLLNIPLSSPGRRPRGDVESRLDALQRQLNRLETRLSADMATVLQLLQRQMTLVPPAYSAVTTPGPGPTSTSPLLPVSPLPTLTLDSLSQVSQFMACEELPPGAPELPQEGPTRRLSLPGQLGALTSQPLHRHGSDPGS
row,Structure (SMILES),"hERG current change (%, negative = inhibition) at 1uM"
1,Cn1c(=O)c2c(nc(SCC(=O)O)n2Cc2cccc(C(F)(F)F)c2)n(C)c1=O,-7.59%
2,COc1ccc(CC(=O)N2CCN(c3ccccc3OC)CC2)cc1,11.8%
3,COc1ccccc1CNC(=O)c1ccc(SC)cc1OC,-9.26%
4,COc1ccc(C)cc1NC(=O)CN1c2cccc3cccc(c23)S1(=O)=O,9%
5,N/C(CC1CC1(Cl)Cl)=N\OC(=O)c1ccccc1 (centres unmarked),9.57%
6,COc1ccccc1/C=C/CN1CCCC(CCC(=O)NCc2ccccc2F)C1 (centres unmarked),-24.8%
7,O=C(O)c1cccc(N/N=C/c2cn(-c3ccccc3)nc2-c2cccs2)c1,13.5%
8,Cc1ccc(C(=O)N2CCCC(C(=O)c3cc(F)ccc3F)C2)s1 (centres unmarked),9.51%
9,CCCC(=O)Nc1nn(CC(C)C)c2nc3cc(C)ccc3cc12,11.7%
10,Cc1ccc(NC(=O)c2ccc(Nc3c([N+](=O)[O-])cc([N+](=O)[O-])cc3[N+](=O)[O-])cc2)cc1,13.1%
11,CCOc1ccc(N2Cc3ncccc3C2=O)cc1,-11.6%
12,NNC(=O)c1[nH]c2ccc(Cl)cc2c1-c1ccccc1,8.54%
13,COc1cc(-c2nnc(COC(=O)c3cc(C)nc4ccc(C)cc34)o2)cc(OC)c1OC,7.64%
14,COc1ccc(C(=O)NNC(=O)c2ccc3ccccc3n2)cc1,-19.5%
15,COc1ccc(CCNC(=O)CN(CCc2ccccc2)S(C)(=O)=O)cc1OC,13.9%
16,Cc1cc(=S)cc(C)n1CCCO,2.89%
17,CCSc1ncc(Cl)c(C(=O)Nc2ccccc2)n1,7.25%
18,COc1ccc(Cl)cc1C(=O)NCCN1CCOCC1,13.1%
19,COc1ccc(C(=O)O/N=C2\CCS(=O)(=O)c3sccc32)cc1,10.4%

row,Structure (SMILES),"hERG current change (%, negative = inhibition) at 1uM"
1,Cc1ccc(OCC(=O)Nc2cc(S(=O)(=O)N3CCCCC3)ccc2C)c([N+](=O)[O-])n1,10.1%
2,CCC(c1nnc(SCCNCCO)n1CCN1CCOCC1)N(C)C.O=C(O)C(=O)O (centres unmarked),17.4%
3,CCN(C(=O)COC(=O)c1cccnc1Nc1cccc(C(F)(F)F)c1)C1CCS(=O)(=O)C1 (centres unmarked),7.32%
4,COc1ccc(CCNC2=NCCS2)cc1,5.26%
5,Cc1ccc(N(Cc2ccccc2)C(=O)c2ccc(C)c(S(=O)(=O)N3CCOCC3)c2)cc1,-4.53%
6,O=C(CNC(=O)c1ccc(Br)o1)NNC(=O)c1n[nH]c(=O)c2ccccc12,16.4%
7,O=c1c(Cc2ccccc2)c(O)ccn1CCc1cnc[nH]1,15.2%
8,O=C(O)c1cc(-c2ccc3ccccc3c2)nc2ccc(F)cc12,24.6%
9,CCC(=O)NC1(C(F)(F)F)C(=O)Nc2c1c(=O)n(C)c(=O)n2C (centres unmarked),10.9%
10,CCn1cc(C(=O)NCc2ccco2)c(=O)c2cc(S(=O)(=O)N3CC(C)CC(C)C3)ccc21 (centres unmarked),11.7%
11,COc1ccc(C(=O)COC(=O)Cn2[nH]c(=O)c3ccccc3c2=O)c(OC)c1,17.8%
12,COc1ccccc1N1CCN(/N=C/C=C\c2ccco2)CC1,6.12%
13,COC(=O)[C@@H](NC(=O)NC1CCCCC1C)C(C)C (some centres unmarked),7.34%
14,CCOC(=O)C1CCCN(Cc2cn[nH]c2-c2ccc(F)cc2F)C1 (centres unmarked),-3.37%
15,COc1cc2ccccc2cc1C(=O)Nc1ccccc1N1CCN(S(C)(=O)=O)CC1,11.7%
16,O=C(c1ccccc1SCc1ccccc1)N1CCCCCC1,0.414%
17,CCOC(=O)c1cnc(SCC(=O)c2ccc(Cl)cc2)nc1N,15.9%
18,CCOC(=O)CSC1=C(C#N)C(c2sccc2C)C(C(C)=O)=C(C)N1 (centres unmarked),9.44%
19,CSc1ccccc1OCc1cc(C(=O)NCc2csc(C(C)C)n2)no1,8.25%

row,Structure (SMILES),"hERG current change (%, negative = inhibition) at 1uM"
1,CCOC(=O)N1CCN(C(=O)CN(c2ccc(OC)c(OC)c2)S(C)(=O)=O)CC1,-3.74%
2,Cc1ccc(CNC(=O)CCn2c(=O)oc3ccccc32)cc1,9.38%
3,CN1CCN(C(c2ccccc2)c2ccccc2)CC1.Cl,10.8%
4,COc1ccccc1N1C(=O)c2ccc(C(=O)Nc3ccc(F)cc3)cc2C1=O,6.32%
5,Cn1c(SCC(=O)Nc2ccc(NC(=O)c3ccccc3F)cc2)nnc1-c1ccncc1,14.9%
6,Cc1ccc(CNS(=O)(=O)c2cc3c(cc2C)N(C)CCO3)cc1,11.1%
7,Nc1nnc(-c2ccccc2[N+](=O)[O-])o1,7.34%
8,CC(C)c1ccc(/C=C(\NC(=O)c2ccccc2)C(=O)NCCN2CCOCC2)cc1,-21.9%
9,COCCCNC(=O)COc1cc(C)c(Cl)c(C)c1,5.43%
10,CC(C)CN(C(=O)c1ccc(=O)n(C)n1)c1c(N)n(Cc2ccccc2)c(=O)[nH]c1=O,8.25%
11,Nn1c(SCC(=O)Nc2cccnc2Cl)nnc1-c1ccccc1,8.94%
12,CCC1=C(OC(=O)N(CC)CC)N2C(=O)OC(=NCC(=O)OC)[C@]2(Cc2ccccc2)[C@H]2C1=CC[C@H]1C(=O)NC(=O)[C@H]12,12.2%
13,CCC(C)NCC(O)COCc1ccc(Cl)cc1.Cl (centres unmarked),3.93%
14,CNc1cc(-n2nc(C)cc2-c2ccccc2)ncn1,15%
15,O=C(NCCNC(=O)c1ccc(F)cc1)c1ccc(F)cc1,4.44%
16,CCOP(=O)(c1ccccc1)C1(C#N)CC1 (centres unmarked),13.2%
17,CCc1c(C#N)c(SCCC(=O)Nc2ccc(F)cc2)nc2c1C(=O)CC(C)(C)C2,9.81%
18,CC1CCC/C(=N\NC(=O)c2ccncc2)C1 (centres unmarked),2.73%
